The list shows a part of the results.
T1: UNK ZnF1-3 (human, UniProt Q9C0B0 31-174)
T1 sequence: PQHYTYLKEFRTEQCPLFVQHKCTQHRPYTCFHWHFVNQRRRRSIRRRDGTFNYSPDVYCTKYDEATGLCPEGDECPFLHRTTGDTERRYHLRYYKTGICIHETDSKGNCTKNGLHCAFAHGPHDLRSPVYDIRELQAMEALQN

B1: chr5:128448638:128448639:+_ENSG00000066583_ENST00000173527|hu_mus|hu_hu_hu_mus_False|8_48 (ssRNA)
RNA: GGGAGUUCUACAGUCCGACGAUCGGCACUCGCCUUAAUUAGGUUCUGAAUUUCCUUGAACUUCGGGUGGUCUUUGUCAGCCACCAGCUGAAGCAGAACAGCCUCACUAGUGGUCACGAUGAUCCCAGUUCGAGCGAGACGCUCCAACAGAGGAUUGAGCAUCA
B2: chr11:69650846:69650847:-_ENSMUSG00000051790_ENSMUST00000108634|mus_mus|FALSE|FALSE (ssRNA)
RNA: GGGAGUUCUACAGUCCGACGAUCGAACCCCGCAGUGGGAAAGGCUGAGCCAGGAGGGAGCAAUGGGACAGGACUAGAUUGGAGAUCCACUGGUUCUCUGGGAUGGCUUCGAGGGACCAGGAGGCGGUUCAGGCGACAGAUCCUCAACAGAGGAUUGAGCAUCA
B3: chr22:19452774:19452775:-_ENSG00000070010_ENST00000399523|hu_hu|hu_hu_hu_mus_False|8_38 (ssRNA)
RNA: GGGAGUUCUACAGUCCGACGAUCCUUCUCAUUGUAGUUGAUAGCAAUCACAUCUCCAGUCGUCAGACAGGCGAAGUUUCUCAAUGCAUUUUCUAAUACGGCUUUGGGGUUGGUAAUAUCCAGGAAGUCAGGGCUCUGAGGCUGCAACAGAGGAUUGAGCAUCA
B4: chr17:56552419:56552420:-_ENSMUSG00000013236_ENSMUST00000086828|mus_mus|mus_mus_mus_hu_False|28_108 (ssRNA)
RNA: GGGAGUUCUACAGUCCGACGAUCAAAGUUUUUUUCUUUUAAAAAAAAUGAAAUGUCACGGGAUACAGUUACACUGAGAGUUUUAAAAGAAAGCUGGAUUCUGGUCCUUGCCAAAAGUCCCCAGGCUGCAGAGCGGGGAGGAGCCAACAGAGGAUUGAGCAUCA
B5: chr19:8913615:8913616:-_ENSMUSG00000071658_ENSMUST00000096259|mus_hu|mus_mus_mus_hu_False|48_58 (ssRNA)
RNA: GGGAGUUCUACAGUCCGACGAUCAGGGUACCAAAACCUUCUGCCUGAAAUGGGUGCCCCACCCAGUAGGGAGUUGCAGCUAAAAAUAUCCGUAGCAGAAGCAGUGACUAUACGAAAGGAGGCCCCUGGGGAGGGCCAGGCCAGCAACAGAGGAUUGAGCAUCA
B6: 57150429_57150635_147_5pUTR_ENSMUSG00000002658_ENSMUST00000002733|mouse|control|control (ssRNA)
RNA: GGGAGUUCUACAGUCCGACGAUCUCUGGCUGCUGGAGCCUAGAGCCGCCAUGGCCGUUGCUCAAGCUGCUCCCGGUCGGCCUGACGGGAUGAACUUCGUUGUGUCCCUCGGCUCCAGGAAAGGGAAGGCACCUUUCCUGGUUGCAACAGAGGAUUGAGCAUCA
B7: chr6:11883424:11883425:+_ENSMUSG00000029629_ENSMUST00000115511|mus_mus|FALSE|FALSE (ssRNA)
RNA: GGGAGUUCUACAGUCCGACGAUCCUUUUUCUUUCUAGGUCUUUCUCCGUUUUCUUCUUCUUCCUUCUUUUCCAUUUUAAUUAACUGUUUGUCUGAUGGCAUUAUUUCCUCUGUAGAAUUUUUAAGCUGUUCUUCUUUUACUUGCAACAGAGGAUUGAGCAUCA
B8: chr4:43046810:43046811:-_ENSMUSG00000036002_ENSMUST00000107956|mus_hu|FALSE|FALSE (ssRNA)
RNA: GGGAGUUCUACAGUCCGACGAUCAAAGAGGCGAUGGCGCAGGAAGGUCAUGUGGGCAGCAGGCAUGUCCGAGAAGUCAAAGGUCACAAGGAACAUCUUUACCACAGUCUGGUUGGGGUUAAAUAAGGUCACUUGGACGGUGCCCAACAGAGGAUUGAGCAUCA
B9: chr5:177634160:177634161:+_ENSG00000197451_ENST00000358344|hu_mus|FALSE|FALSE (ssRNA)
RNA: GGGAGUUCUACAGUCCGACGAUCACUGACAGUAUGAAAUUUCUUCUCCAGAACUUUCUUCACAGGAUCUUCCUCUUUAAAUGUAAUAAAAACAAAACCCCGUCUUUUGUUCAACUUGGGAUCUAUUGGAAGCUCAAUGGCCUCCAACAGAGGAUUGAGCAUCA
B10: chr7:19156472:19156473:-_ENSG00000122691_ENST00000242261|hu_hu|FALSE|FALSE (ssRNA)
RNA: GGGAGUUCUACAGUCCGACGAUCGCUGCAGCUUGCCAUCUUGGAGUCCAGCUCGUCGCUCUGGAGGACCUGGUAGAGGAAGUCGAUGUACCUGGCCGCCAGCUUGAGGGUCUGAAUCUUGCUCAGCUUGUCCGAGGGCAGCGUCAACAGAGGAUUGAGCAUCA
B11: chr14:90870812:90870813:+_ENSG00000198668_ENST00000553542|hu_mus|FALSE|FALSE (ssRNA)
RNA: GGGAGUUCUACAGUCCGACGAUCAUCAAUAUCUGCUUCUCUGAUCAUUUCAUCUACUUCUUCAUCUGUUAGCUUUUCUCCUAAGUUUGUCAUGACGUGGCGCAGUUCUGCCGCACUGAUGUAACCAUUCCCAUCCUUGUCAAACAACAGAGGAUUGAGCAUCA
B12: chr6:40197388:40197389:+_ENSMUSG00000057716_ENSMUST00000061740|mus_mus|mus_mus_mus_hu_False|28_68 (ssRNA)
RNA: GGGAGUUCUACAGUCCGACGAUCGAGACACUGGGGUGGAUUUAUUCCACCUCUGUUUGGGUGCUAGUAAGAUAGAUUGUUAUUUUGGGAUUCAUGGCCUUGAAUAUCAAGAGGAAAAGGAAGAGGAUGGAAAGAGUCAAGAGUCAACAGAGGAUUGAGCAUCA
B13: chr2:27806210:27806211:+_ENSMUSG00000026837_ENSMUST00000028280|mus_hu|motif|central (ssRNA)
RNA: GGGAGUUCUACAGUCCGACGAUCUGUGGUUUCUUUGGCAGCUUCCACGGGCUUCUUGCUGGGGGUGGGCUCCUUCCCGGGGUCUUCGGGGUCUUCGUAGUAGGGGUAUUCGUAGUAAUAGGUCUCACCCUCGCCGUCUCCUUCCAACAGAGGAUUGAGCAUCA
B14: chr17:60770872:60770873:+_ENSG00000011028_ENST00000303375|hu_hu|hu_hu_hu_mus_True|68_98 (ssRNA)
RNA: GGGAGUUCUACAGUCCGACGAUCUCUUUAAAAAAAAUUCCUUUUUUACAAACAAUAAUAGCACAUUAUUUAAAAAAAGAACUACAAUAGAGGGUCCGCUUUGAGUUUUUGUUCACAUCGUCCUGCACUGGGACACGGGGACUGCAACAGAGGAUUGAGCAUCA
B15: chr4:107908409:107908410:-_ENSMUSG00000034636_ENSMUST00000043616|mus_hu|motif|central (ssRNA)
RNA: GGGAGUUCUACAGUCCGACGAUCACUGUAGAAUCUCAAGCACAAGUAAGUUCAAACACUGAAAGAUGUGGAAAAUUUCCGGAAAGGCAAUGAUAAAGGAAGAGACCCUUCUUGACUCAUAAGUUUAAAAUCACAAGACAAAUUCAACAGAGGAUUGAGCAUCA
B16: chrX:71549762:71549763:+_ENSMUSG00000019087_ENSMUST00000019231|mus_mus|mus_mus_mus_hu_False|58_78 (ssRNA)
RNA: GGGAGUUCUACAGUCCGACGAUCAAACCCGUGUACUUCUUAUUGUUAGCACAACAUUCCCCCCCAACGAUAACGACAGCUAAGCUGGACAGACAGUUAAGUAGUACUUCCACACUCCCAAACUCAGGGAGCCCUAUAACCUUACAACAGAGGAUUGAGCAUCA
B17: chr7:128503047:128503048:+_ENSG00000128524_ENST00000249289|hu_mus|motif|central (ssRNA)
RNA: GGGAGUUCUACAGUCCGACGAUCGGUGGUAUCCUUCUCCACUACCAGGAAAUUAGGGUGGCGGUUCUUGUUUAGCUCCCCGGUGCCGCCCAACAGGAAACCAGUCACCGUGUCCUCGUCUCCAAUCACCGCGAUUAGCUUACCCAACAGAGGAUUGAGCAUCA
B18: chr7:140404665:140404666:+_ENSG00000090266_ENST00000247866|hu_hu|hu_hu_hu_mus_False|98_108 (ssRNA)
RNA: GGGAGUUCUACAGUCCGACGAUCUGCGUACAGAGUGAGGCUGAGUCUACAGUGUCAGUCCUCGUCAUCAGGAGGGAUUCCCAGUUCUUCAUCUGUCCACUGUGAAGGAUCUGGAUAUGAAAAGUGACCCAGCACAGCAUCCGACAACAGAGGAUUGAGCAUCA
B19: chr11:58768410:58768411:+_ENSMUSG00000078851_ENSMUST00000108817|mus_mus|motif|central (ssRNA)
RNA: GGGAGUUCUACAGUCCGACGAUCCUUCUUAUUGUCGCGGGCCGCAUUACCAGCCAAUUCCAGGAUCUCAGCAGUCAGAUAUUCGGGCACAGCCGCCAGGUACACCGGGGCACCAGCGCCGACCCGCUCCGAAUAAUUACCCUUCAACAGAGGAUUGAGCAUCA
B20: chr11:29608318:29608319:+_ENSMUSG00000020458_ENSMUST00000102843|mus_mus|FALSE|FALSE (ssRNA)
RNA: GGGAGUUCUACAGUCCGACGAUCUAUCUCAAUGGGAGAUGAAUCGGAAAAUGUUUCACUUUCUUUCAUUUUGUCUUCCUUAGAAGAAAGUAAGUCAUCAUUGGAAUAAAUUGCAGUAUUAAACUCUUCCAUUUGCAAAGAAAUCAACAGAGGAUUGAGCAUCA
B21: chr2:85280848:85280849:+_ENSG00000176407_ENST00000409785|hu_mus|FALSE|FALSE (ssRNA)
RNA: GGGAGUUCUACAGUCCGACGAUCUCAUGCAGUAGUUAGGUAAACCAUCCAAGCAGUUUUUAUUCAUUAAUAUUCAUAAAUACACACAGCAGCUUCAUUAGAGAUUUCAAUUUUCCUCUUCAGUUUGAAUGUGGAGUAUUAGGACAACAGAGGAUUGAGCAUCA
B22: 60031836_60038361_1643_CDS_ENSMUSG00000041040_ENSMUST00000036540|mouse|control|control (ssRNA)
RNA: GGGAGUUCUACAGUCCGACGAUCUGGUUUGAGGAUACUCACGAGGCAGAAAGCAGAGCCACUUUUAGGAAUGAAAUUCACCUUGUUUUUGUCAGGACAGUAAAAGGCUGGAAUCUCAUGAAGUUGUUUUGGCGAGCAUUCCUCCAACAGAGGAUUGAGCAUCA

The binders below were run against T1, UNK ZnF1-3 (assay: nsRBNS (natural sequence RNA bind-n-seq); RBNS binding buffer (assumed for nsRBNS): 25 mM Tris pH 7.5, 150 mM KCl, 3 mM MgCl2, 0.01% Triton X-100, 500 ug/ml BSA, 20 U/ml SUPERase-In, 4 C; UNK is unkempt and MSI1 is Musashi-1; names of the RNAs are library labels; protein concentration not given here; high values mean tight binding).

| Binder | binding signal [enrichment R] |
| --- | --- |
| B1 | 0.598 |
| B2 | 2.79 |
| B3 | 0.941 |
| B4 | 1.4 |
| B5 | 1.53 |
| B6 | 0.367 |
| B7 | 0.21 |
| B8 | 1.51 |
| B9 | 1.13 |
| B10 | 0.922 |
| B11 | 0.507 |
| B12 | 1.66 |
| B13 | 0.622 |
| B14 | 1.25 |
| B15 | 1.21 |
| B16 | 1.26 |
| B17 | 0.526 |
| B18 | 0.883 |
| B19 | 1.1 |
| B20 | 0.653 |
| B21 | 1.29 |
| B22 | 1.43 |
